{"source": "PubChem BioAssay AID2675", "about": "(National Center for Advancing Translational Sciences (NCATS), 2010)", "note": "The campaign covered roughly 280,000 compounds. About 100 (0.036%) were called active. This list was built around the results that the source calls inconclusive (neither active nor inactive); the mix of calls is not that of the screen. Calls follow the shape of the dose curve; as a rule, active = well fitted inhibition curve with a large enough effect in the signal ratio, with a control signal flat (not every such curve was filed as active); inconclusive = small, poorly fitted or top-dose-only effect, or effect the other way, or a change in a side signal; inactive = no such curve, though single readings can be large or run the other way; the % refers to the signal ratio. Potencies of inconclusive entries are doubtful fits and often do not repeat. A note “side channel” means that the fit belongs to a control or component signal, not to the main read-out. % is scaled to controls: 0 for no effect and ±100 for the full control effect; potency is read from the fitted curve at half-maximal effect; tags tell the direction and shape of the fitted curve or compound fluorescence and quenching.", "data": [{"biological_target": "Muscleblind-like protein 1 (Homo sapiens) (UniProt Q9NR56)", "sequence (Q9NR56 whole entry, looked up)": "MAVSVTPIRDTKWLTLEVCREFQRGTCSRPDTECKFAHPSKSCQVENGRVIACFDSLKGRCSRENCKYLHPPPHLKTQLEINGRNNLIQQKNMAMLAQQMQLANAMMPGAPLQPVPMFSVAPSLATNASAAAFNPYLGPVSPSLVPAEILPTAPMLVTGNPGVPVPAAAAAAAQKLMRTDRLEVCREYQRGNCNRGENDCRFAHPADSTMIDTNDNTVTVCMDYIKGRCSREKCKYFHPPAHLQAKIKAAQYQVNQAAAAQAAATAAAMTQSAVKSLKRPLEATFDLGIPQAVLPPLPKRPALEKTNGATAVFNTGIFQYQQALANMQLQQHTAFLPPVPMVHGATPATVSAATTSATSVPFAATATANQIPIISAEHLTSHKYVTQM", "test": "qHTS Assay for Inhibitors of MBNL1-poly(CUG) RNA binding", "conditions": "TR-FRET MBNL1-His/biotin-(CUG)12 binding, 665/545 ratio; activity change, negative = inhibition: at 57.5 µM (top of the series)", "method_in_brief": "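Ratiometric TR-FRET (665 over 545 nm, excitation 340 nm) tracks disruption of MBNL1-His/biotin-(CUG)12 complex after 60 min at room temperature, with compounds at 92 nM to 58 uM final.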", "values": [{"smiles": "O=c1c(-c2ccccc2)coc2cc(O)ccc12", "Potency": "inconclusive: 0.1 µM [inhibitor, full curve, poor fit]"}, {"smiles": "Cc1ncsc1C(=O)N1CCCC(C(=O)c2ccc3ccccc3c2)C1", "note": "(centres undefined)", "Potency": "inconclusive: 11.2 µM [quencher, side channel, partial curve]"}, {"smiles": "O=C(NC1CCSc2ccccc21)c1ccc([N+](=O)[O-])cc1", "note": "(centres undefined)", "Potency": "inconclusive: 25.1 µM [quencher, side channel, partial curve]"}, {"smiles": "Cc1nn2c(-c3ccccc3)ccnc2c1Br", "Potency": "inconclusive: 14.1 µM [quencher, side channel, partial curve]"}, {"smiles": "CC(=O)Nc1ccc(NC(=O)CSc2ccccn2)cc1", "Potency": "inconclusive: 8.91 µM [inhibitor, full curve, poor fit]"}, {"smiles": "O=C(Nc1ccc(N2CCN(Cc3ccccc3Cl)CC2)cc1)c1cccnc1", "Potency": "inconclusive: 0.794 µM [quencher, side channel, single point]"}, {"smiles": "CCn1c(=S)[nH]c2cc(S(=O)(=O)N3CCCCC3)ccc21", "activity change, negative = inhibition": "inactive: 4.66%"}, {"smiles": "COc1ccc(N2CCN(CCNS(=O)(=O)c3ccc(C)cc3)CC2)cc1", "activity change, negative = inhibition": "inactive: -11.4%"}, {"smiles": "CCCCn1nnnc1SCC(=O)NCc1ccccc1", "activity change, negative = inhibition": "inactive: 11.2%"}, {"smiles": "Brc1c(-c2ccccc2)nc2n1Cc1ccccc1-2", "activity change, negative = inhibition": "inactive: -0.164%"}, {"smiles": "COc1ccc(C(=O)Nc2ccc(NC(=O)c3cccs3)cc2)cc1[N+](=O)[O-]", "Potency": "inconclusive: 0.112 µM [fluorescent, side channel, full curve]"}, {"smiles": "CC1Cc2ccccc2N1C(=O)CSc1nc(-c2ccccc2)cs1", "note": "(centres undefined)", "Potency": "inconclusive: 0.316 µM [fluorescent, side channel, partial curve]"}, {"smiles": "Cc1ccc([N+](=O)[O-])cc1N/C=C1\\CCCCC1=O", "Potency": "inconclusive: 10 µM [quencher, side channel, full curve, poor fit]"}, {"smiles": "Cc1ccc(-c2[nH]nc3c2C(c2cccnc2)C(C#N)=C(N)O3)cc1", "note": "(centres undefined)", "Potency": "inconclusive: 31.6 µM [quencher, side channel, single point]"}, {"smiles": "Nc1c(C(=O)Nc2ccc(Cl)cc2)sc2nc(N3CCOCC3)c3c(c12)CCCC3", "activity change, negative = inhibition": "inactive: 6.63%"}, {"smiles": "Oc1ccc(Cl)cc1-c1cc(-c2ccccc2)n[nH]1", "Potency": "inconclusive: 39.8 µM [quencher, side channel, single point]"}, {"smiles": "C=CCn1c(O)c(N=NC(=O)CNC(=O)/C=C/c2ccco2)c2ccccc21", "Potency": "inconclusive: 15.8 µM [quencher, side channel, partial curve]"}, {"smiles": "COc1ccccc1OC(C)C(=O)Nc1ccccc1C(=O)NCc1cccnc1", "note": "(centres undefined)", "activity change, negative = inhibition": "inactive: 1.94%"}, {"smiles": "CC(=O)Nc1cccc(NC(=O)c2ccc([N+](=O)[O-])cc2Cl)c1", "Potency": "inconclusive: 15.8 µM [quencher, side channel, partial curve]"}, {"smiles": "O=C(CCNS(=O)(=O)c1cccc2nsnc12)NCc1cccs1", "Potency": "inconclusive: 14.1 µM [quencher, side channel, partial curve]"}, {"smiles": "Cc1ccc(S(=O)(=O)/N=C(/Nc2ccc([N+](=O)[O-])cc2)c2ccccc2)cc1", "Potency": "inconclusive: 44.7 µM [quencher, side channel, partial curve, poor fit]"}, {"smiles": "CCN1C(=O)c2cccc3c(S(=O)(=O)NCc4cccnc4)ccc1c23", "Potency": "inconclusive: 15.8 µM [quencher, partial curve]"}, {"smiles": "Cc1cc(C)c(NC(=O)CN2CCN3CCCC3C2)c(C)c1", "note": "(centres undefined)", "Potency": "inconclusive: 39.8 µM [quencher, side channel, single point]"}, {"smiles": "Cc1ccc(C)c(N2CCN(C(=O)CCS(=O)(=O)c3cccc4nonc34)CC2)c1", "Potency": "inconclusive: 17.8 µM [quencher, side channel, partial curve]"}, {"smiles": "O=C(NCC1CCCO1)c1cncc(Br)c1", "note": "(centres undefined)", "activity change, negative = inhibition": "inactive: -0.472%"}, {"smiles": "CCOc1ccc(NC(=O)COC(=O)C2(C)CC2(Cl)Cl)c([N+](=O)[O-])c1", "note": "(centres undefined)", "Potency": "inconclusive: 17.8 µM [quencher, side channel, partial curve]"}, {"smiles": "O=C(COC(=O)/C=C/c1ccc(S(=O)(=O)N2CCOCC2)cc1)NCc1ccccc1", "Potency": "inconclusive: 15.8 µM [quencher, side channel, partial curve]"}, {"smiles": "COc1ccccc1CNC(=O)C(NS(=O)(=O)c1cccc2nsnc12)C(C)C", "note": "(centres undefined)", "Potency": "inconclusive: 14.1 µM [quencher, side channel, partial curve]"}, {"smiles": "COc1cc(NC(=S)N2CCN(c3ccccn3)CC2)cc(OC)c1OC", "activity change, negative = inhibition": "inactive: -6.98%"}, {"smiles": "CCOC(=O)c1sc2cc([N+](=O)[O-])cc(SCC(=O)OC)c2c1N", "Potency": "inconclusive: 7.94 µM [quencher, side channel, partial curve]"}, {"smiles": "C/C(=N\\NC(=O)c1ccco1)c1cc2ccccc2o1", "Potency": "inconclusive: 15.8 µM [quencher, side channel, partial curve]"}, {"smiles": "O=S(=O)(Nc1cccc2ncccc12)c1cccs1", "activity change, negative = inhibition": "inactive: 10.5%"}, {"smiles": "COC(=O)CNC(=O)c1cc(-c2ccncc2)nc2ccccc12", "Potency": "inconclusive: 14.1 µM [quencher, side channel, partial curve]"}, {"smiles": "CCOC(=O)C1(Cc2ccc(Cl)cc2)CCN(C(=O)C2CCCO2)CC1", "note": "(centres undefined)", "activity change, negative = inhibition": "inactive: 1.25%"}, {"smiles": "COc1ccc(/C=N/NC(=O)CCNc2n[nH]c(=O)[nH]c2=O)c(OC)c1", "Potency": "inconclusive: 28.2 µM [quencher, side channel, partial curve]"}, {"smiles": "O=C(NCCN1CCN(c2ccc([N+](=O)[O-])cc2)CC1)NCc1ccccc1", "Potency": "inconclusive: 7.94 µM [quencher, side channel, full curve]"}, {"smiles": "CC(C)(C)c1cc(CCC(=O)N2CCCC2)cc(C(C)(C)C)c1O", "Potency": "inconclusive: 20 µM [quencher, side channel, partial curve]"}, {"smiles": "CCn1c(O)c(N=NC(=O)Cc2csc(N3CCOCC3)n2)c2ccccc21", "Potency": "inconclusive: 7.08 µM [quencher, side channel, partial curve]"}, {"smiles": "CC1(C)OC(=O)C(=Cc2ccc[nH]2)C(=O)O1", "Potency": "inconclusive: 14.1 µM [quencher, side channel, partial curve]"}]}]}
